Laboratory results reported in PubChem BioAssay (NCI).
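Where inhibition never reached the appropriate level, the endpoint shown equals the highest concentration tested. Otherwise, values were interpolated linearly from a five-concentration, 48-hour dose response in 96-well plates. At the GI50, growth is halved. TGI: concentration producing complete growth inhibition.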

Each molecule was assayed on NCI-H322M lung (assay: growth of human tumour cells (NCI), 48 h).
In the case of `CCO/C=N/C1=C(C#N)C(c2ccc(OC)cc2)c2sc3c(C)cccc3c2O1` (stereo unspecified), the GI50 is reported as 1.49 µM and the TGI is reported as > 100 µM.
`COc1cc(/C=N/NC(=O)c2cn(C3CC3)c3c(OC)c(N4CC5CCCNC5C4)c(F)cc3c2=O)ccc1O` (stereo unspecified) was tested, and the GI50 was 1.67 µM and the TGI was 3.18 µM.
In the case of `C#Cc1nc(C2=C(C)C(OC(C)=O)/C(=N/OC(C)=O)C2)cs1` (stereo unspecified), the GI50 is reported as > 100 µM and the TGI is reported as > 100 µM.
